# Test results as given in PubChem BioAssay (NCATS).
# The shares of active, inactive and inconclusive entries below differ from those in the screen. Potencies of inconclusive entries are left out as doubtful fits. The source made the active and inactive calls. The call rests on the fitted dose curve; in most records, active means well fitted inhibition curve with a large enough effect; inconclusive means small, poorly fitted or top-dose-only effect; inactive means flat fitted curve, though single readings scatter.
# Molecular target: Fructose-bisphosphate aldolase A (Oryctolagus cuniculus) (UniProt P00883)
# Test: qHTS Assay for Inhibitors of Fructose-1,6-bisphosphate Aldolase from Giardia Lamblia: Rabbit FBPA Selectivity (AID 2794); further: nearly all actives have a fitted effect of over 60% in size
# Conditions: Rabbit muscle FBPA enzyme inhibition, selectivity counter-screen; series mostly up to 57.5 µM; activity, negative = inhibition: at the top concentration
# How it was run: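 Each compound, dosed at up to 57.5 uM final, was first mixed with coupling enzyme reagent for 10 min. Aldolase substrate and the AmpLite Red coupling system then ran 20 min at RT before a single fluorescence read.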
# On the % scale 0 is the no-effect control and ±100 the full control effect; potency means the concentration at half of the fitted maximal effect; tags describe the fitted curve by direction and shape.
# Chain of UniProt P00883 (P00883 whole entry, looked up): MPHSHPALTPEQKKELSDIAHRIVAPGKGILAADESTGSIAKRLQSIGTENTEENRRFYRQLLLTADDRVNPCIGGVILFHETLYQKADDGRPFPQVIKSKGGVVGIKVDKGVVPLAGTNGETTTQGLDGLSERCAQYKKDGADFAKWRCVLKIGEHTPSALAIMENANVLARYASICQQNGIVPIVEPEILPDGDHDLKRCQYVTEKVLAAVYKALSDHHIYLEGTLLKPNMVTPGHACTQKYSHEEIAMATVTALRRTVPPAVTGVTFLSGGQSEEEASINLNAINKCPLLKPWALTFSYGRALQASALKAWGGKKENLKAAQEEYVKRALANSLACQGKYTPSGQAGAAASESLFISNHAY
Compound,Potency,"activity, negative = inhibition"
Cc1cc(C)n2c(=S)[nH]nc2n1,"inconclusive [inhibitor, partial curve]",
Cc1oc2c(O)c(O)ccc2c(=O)c1-c1ccccc1,"inconclusive [inhibitor, partial curve]",
c1ccc2[nH]c(SN3CCOCC3)nc2c1,,inactive: -21.2%
CSC1=NS(=O)(=O)c2c(C)nn(C)c2S1,active: 39.8 µM,
CCN1CCN(CC(=O)Nc2cc3c(cc2C(C)=O)OCO3)CC1,,inactive: 2.71%
O=C(O)COc1ccccc1C(Nc1cccnc1)c1cc(Cl)c2cccnc2c1O (stereo unspecified),,inactive: -6.15%
CSc1ccc(/C=N\Nc2nncn2N)cc1,active: 6.51 µM,
Oc1ccc(/C=N/N=C(c2ccccc2)c2ccccc2)c(O)c1O,"inconclusive [inhibitor, partial curve]",
COc1cc(CN2CCN(S(=O)(=O)c3ccccc3)CC2)cc(OC)c1OC,,inactive: -0.49%
CN(C)CCOc1ccc(Cl)cc1C(C)(C)C,,inactive: -10.1%
O=C(CN1CCN(S(=O)(=O)c2ccc(F)cc2)CC1)c1ccc(O)c(O)c1,,inactive: -16.5%
CCSS(=O)(=O)c1cccc2cccnc12,"inconclusive [inhibitor, single point]",
Cn1c(=S)c2[nH]c(SCCN3CCCC3)nc2n(C)c1=O,,inactive: -2.93%
CN(C)c1ccc(C(=S)N2CCN(Cc3ccccc3)CC2)cc1,"inconclusive [inhibitor, single point]",
O=c1ccc2cc3c([nH]c4ccc(Br)cc43)oc-2c1O,active: 8.91 µM,
COc1ccc(OC)c(NC(=O)CN(C)CC(=O)Nc2ccccc2Br)c1,,inactive: 7.14%
